From PubChem BioAssay AID1347120 (National Center for Advancing Translational Sciences (NCATS), 2019)
In all, about 390,000 compounds went through this assay and about 930 (0.24%) were called active. The shares of active, inactive and inconclusive entries below differ from those in the screen. Calls follow the shape of the dose curve; as a rule, active = well fitted activation curve with a large enough effect; inconclusive = small, poorly fitted or top-dose-only effect; inactive = no such curve, though single readings can be large or run the other way. A potency beside an inconclusive call is a rough fit, not a confirmed value.
Potency is read from the fitted curve at half-maximal effect; tags tell the direction and shape of the fitted curve.

Assay: qHTS for Suppressors of FUS Proteinopathy: Primary screen using FUS-linked yeast assay; also: nearly all actives have a fitted effect of over 55% in size;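 as to growth rescue (activation): plate controls were DMSO vehicle for no effect and reference control for full effect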
Settings: S. cerevisiae FUS-expressing, OD600, 24 h; Potency: growth rescue; growth rescue (activation): at 76.6 µM (top of the series)
How it was run: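 Cultures pregrown in 2.5% raffinose medium are shifted to minimal medium containing 2% galactose to express toxic FUS. Compounds are tested at several concentrations. After 24hr at 30C, growth is quantified at 600 nm absorbance.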
In the case of `COc1ccc(N(Cc2cc(=O)[nH]c3ccccc23)C(=O)c2ccco2)cc1`, the Potency is reported as inconclusive: 5.62 µM [activator, partial curve, poor fit]. In the case of `COc1cc(NC(=O)c2ccco2)ccc1NC(=O)c1ccccc1Cl`, the Potency is reported as inconclusive: 3.98 µM [activator, full curve]. For `Nc1nnc(CC(=O)N/N=C/c2ccc(-c3cccc(C(=O)O)c3)o2)s1`, the Potency was inconclusive: 25.1 µM [activator, partial curve, poor fit]. For `O=C(COc1ccc(S(=O)(=O)N2CCCC2)cc1)N1CCN(c2ccccc2F)CC1`, the Potency was inconclusive: 35.5 µM [activator, partial curve, poor fit]. In the case of `O=C(c1ccc(F)c(F)c1)N1CCC(Oc2cccnc2)CC1`, the Potency is reported as “inactive”. For `CCC(C)[C@@H](C(=O)OC)N(CCc1cn(Cc2ccccc2)nn1)S(=O)(=O)c1ccccc1Br` (stereo partly drawn), the Potency was inconclusive: 10 µM [activator, partial curve]. In the case of `CCN(CC)c1nc2c(S(=O)(=O)c3ccccc3)nnn2c2ccc(Cl)cc12`, the Potency is reported as inconclusive: 39.8 µM [activator, single point]. In the case of `CCOc1ccccc1CNC(=O)c1nc(-c2ccc(Cl)cc2)n2c1CCCCC2`, the Potency is reported as inconclusive: 35.5 µM [activator, single point]. In the case of `CN(CCc1ccccc1)C(C(=O)Nc1ccc2c(c1)OCCO2)c1ccnc2ccccc12` (stereo not drawn), the Potency is reported as inconclusive: 22.4 µM [activator, partial curve]. For `COc1ccc(S(=O)(=O)Nc2cccc(S(=O)(=O)N3CCCCCC3)c2)cc1`, the growth rescue (activation) was inconclusive: 64.4% [activator]. In the case of `CCOc1ccc(CCNC(=O)c2ccc3[nH]ccc3c2)cc1OCC`, the Potency is reported as “inactive”. In the case of `O=C1C[C@@H]2C(=O)N(c3ccccc3)C(=O)[C@@H]2[C@@H]2CN(S(=O)(=O)c3ccccc3)[C@@H](c3ccccc3)[C@H]12`, the Potency is reported as inconclusive: 39.8 µM [activator, single point]. For `COc1ccc(C)cc1NC(=O)Cc1csc(NC(=O)Nc2ccccc2OC)n1`, the Potency was inconclusive: 50.1 µM [activator, single point]. In the case of `C[C@H](CO)N1C[C@H](C)[C@@H](CN(C)S(=O)(=O)c2ccc(F)cc2)Oc2ccc(NS(=O)(=O)c3cccs3)cc2C1=O`, the Potency is reported as “inactive”. In the case of `Cc1cc(C)cc(NC(=O)c2cc(C)nc3c2c(C)nn3-c2ccccc2)c1`, the Potency is reported as “inactive”. With `Fc1ccc(-c2n[nH]c(=S)n2N=Cc2ccc(-c3ccccc3)cc2)cc1` the Potency was “inactive”. With `Cc1cc(C)c2c(CN3CCCCC3)cc(=O)oc2c1` the Potency was “inactive”. With `C=CC[C@H](CC(=O)N(CCO)Cc1ccccc1)C(=O)N[C@H](COC(=O)[C@@H](CC=C)Cc1ccc(F)cc1)Cc1c[nH]c2ccccc12` the Potency was inconclusive: 12.6 µM [activator, partial curve].
